# Experimental data: the supplement of paper PMC8728848
# Some of the results follow.
# B1: CVN-E41G (protein)
# chain: MHHHHHHENLYFQSGNFSQACYNSAIQGSVLTSTCIRTNGGYNTSSIDLNSVIGNVDGSLKWQGSNFIETCRNTQLAGSSELAAECKTRAQQFVSTKINLDDHIAAIDGTLKYE
# Columns and labels:
# Test in all cases: glycan array binding signal (z-score within array); higher = stronger binding
# Details in all cases: glycan notation: IUPAC condensed, linker removed; mutation: E41G
# Fuc(a1-2)Gal = target: Fuc(a1-2)Gal
# Procedure, shortened: (§1)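 Glycan array binding is given as a within-array Z-score, which can be read as non-binding when negative. The arrays, 3228 of them, came from the Consortium for Functional Glycomics database and were retained only where the protein sequence was available. Z-scores were averaged across arrays of the same protein sequence at different concentrations or buffers and across linkers.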
# Fuc(a1-2)Gal(b1-3)GalNAc = target: Fuc(a1-2)Gal(b1-3)GalNAc
# Procedure, shortened: as §1
# [1] = target: Fuc(a1-2)Gal(b1-3)GalNAc(a1-3)[Fuc(a1-2)]Gal(b1-4)Glc
# Procedure, shortened: as §1
# [2] = target: Fuc(a1-2)Gal(b1-3)GalNAc(a1-3)[Fuc(a1-2)]Gal(b1-4)GlcNAc
# Procedure, shortened: as §1
# [3] = target: Fuc(a1-2)Gal(b1-3)GalNAc(b1-3)Gal
# Procedure, shortened: as §1
# [4] = target: Fuc(a1-2)Gal(b1-3)GalNAc(b1-3)Gal(a1-4)Gal(b1-4)Glc
# Procedure, shortened: as §1
# [5] = target: Fuc(a1-2)Gal(b1-3)GalNAc(b1-4)[Neu5Ac(a2-3)]Gal(b1-4)Glc
# Procedure, shortened: as §1
# Fuc(a1-2)Gal(b1-3)GlcNAc = target: Fuc(a1-2)Gal(b1-3)GlcNAc
# Procedure, shortened: as §1
# [6] = target: Fuc(a1-2)Gal(b1-3)GlcNAc(b1-2)Man(a1-3)[Fuc(a1-2)Gal(b1-3)GlcNAc(b1-2)Man(a1-6)]Man(b1-4)GlcNAc(b1-4)GlcNAc
# Procedure, shortened: as §1
# [7] = target: Fuc(a1-2)Gal(b1-3)GlcNAc(b1-2)Man(a1-3)[Fuc(a1-2)Gal(b1-3)GlcNAc(b1-2)Man(a1-6)]Man(b1-4)GlcNAc(b1-4)[Fuc(a1-6)]GlcNAc
# Procedure, shortened: as §1
# [8] = target: Fuc(a1-2)Gal(b1-3)GlcNAc(b1-3)Gal(b1-4)Glc
# Procedure, shortened: as §1
# [9] = target: Fuc(a1-2)Gal(b1-3)GlcNAc(b1-3)GalNAc
# Procedure, shortened: as §1
# [10] = target: Fuc(a1-2)Gal(b1-3)GlcNAc(b1-3)[Fuc(a1-2)Gal(b1-3)GlcNAc(b1-6)]GalNAc
# Procedure, shortened: as §1
# [11] = target: Fuc(a1-2)Gal(b1-3)GlcNAc(b1-3)[Gal(b1-4)GlcNAc(b1-6)]Gal(b1-4)Glc
# Procedure, shortened: as §1
# [12] = target: Fuc(a1-2)Gal(b1-3)GlcNAc(b1-3)[Neu5Ac(a2-6)Gal(b1-4)GlcNAc(b1-6)]Gal(b1-4)Glc
# Procedure, shortened: as §1
# [13] = target: Fuc(a1-2)Gal(b1-3)GlcNAc6S
# Procedure, shortened: as §1
# [14] = target: Fuc(a1-2)Gal(b1-3)[Fuc(a1-4)]GlcNAc
# Procedure, shortened: as §1
# [15] = target: Fuc(a1-2)Gal(b1-3)[Fuc(a1-4)]GlcNAc(b1-2)Man(a1-3)[Fuc(a1-2)Gal(b1-3)[Fuc(a1-4)]GlcNAc(b1-2)Man(a1-3)]Man(b1-4)GlcNAc(b1-4)GlcNAc
# Procedure, shortened: as §1
# [16] = target: Fuc(a1-2)Gal(b1-3)[Fuc(a1-4)]GlcNAc(b1-2)Man(a1-3)[Fuc(a1-2)Gal(b1-3)[Fuc(a1-4)]GlcNAc(b1-2)Man(a1-6)]Man(b1-4)GlcNAc(b1-4)[Fuc(a1-6)]GlcNAc(b1-4)[Fuc(a1-6)]GlcNAc
# Procedure, shortened: as §1
# [17] = target: Fuc(a1-2)Gal(b1-3)[Fuc(a1-4)]GlcNAc(b1-3)[Fuc(a1-3)[Gal(b1-4)]GlcNAc(b1-6)]Gal(b1-4)Glc
# Procedure, shortened: as §1
# [18] = target: Fuc(a1-2)Gal(b1-3)[Fuc(a1-4)]GlcNAc(b1-3)[Gal(b1-4)GlcNAc(b1-6)]Gal(b1-4)Glc
# Procedure, shortened: as §1
# [19] = target: Fuc(a1-2)Gal(b1-4)Fuc(a1-3)]GlcNAc(b1-2)Man(a1-3)[Fuc(a1-2)Gal(b1-4)[Fuc(a1-3)]GlcNAc(b1-2)Man(a1-6)]Man(b1-4)GlcNAc(b1-4)GlcNAc
# Procedure, shortened: as §1
# Fuc(a1-2)Gal(b1-4)Glc = target: Fuc(a1-2)Gal(b1-4)Glc
# Procedure, shortened: as §1
# Fuc(a1-2)Gal(b1-4)Glc6S = target: Fuc(a1-2)Gal(b1-4)Glc6S
# Procedure, shortened: as §1
# Fuc(a1-2)Gal(b1-4)GlcNAc = target: Fuc(a1-2)Gal(b1-4)GlcNAc
# Procedure, shortened: as §1
# [20] = target: Fuc(a1-2)Gal(b1-4)GlcNAc(b1-2)Man
# Procedure, shortened: as §1
# [21] = target: Fuc(a1-2)Gal(b1-4)GlcNAc(b1-2)Man(a1-3)[Fuc(a1-2)Gal(b1-4)GlcNAc(b1-2)Man(a1-6)]Man(b1-4)GlcNAc(b1-4)GlcNAc
# Procedure, shortened: as §1
# [22] = target: Fuc(a1-2)Gal(b1-4)GlcNAc(b1-2)Man(a1-3)[Fuc(a1-2)Gal(b1-4)GlcNAc(b1-2)Man(a1-6)]Man(b1-4)GlcNAc(b1-4)[Fuc(a1-6)]GlcNAc
# Procedure, shortened: as §1
# [23] = target: Fuc(a1-2)Gal(b1-4)GlcNAc(b1-2)[Fuc(a1-2)Gal(b1-4)GlcNAc(b1-4)]Man(a1-3)[Fuc(a1-2)Gal(b1-4)GlcNAc(b1-2)Man(a1-6)]Man(b1-4)GlcNAc(b1-4)GlcNAc
# Procedure, shortened: as §1
# [24] = target: Fuc(a1-2)Gal(b1-4)GlcNAc(b1-3)Gal(b1-4)GlcNAc
# Procedure, shortened: as §1
# [25] = target: Fuc(a1-2)Gal(b1-4)GlcNAc(b1-3)Gal(b1-4)GlcNAc(b1-2)Man(a1-3)[Fuc(a1-2)Gal(b1-4)GlcNAc(b1-3)Gal(b1-4)GlcNAc(b1-2)Man(a1-6)]Man(b1-4)GlcNAc(b1-4)GlcNAc
# Procedure, shortened: as §1
# [26] = target: Fuc(a1-2)Gal(b1-4)GlcNAc(b1-3)Gal(b1-4)GlcNAc(b1-3)Gal(b1-4)GlcNAc
# Procedure, shortened: as §1
# [27] = target: Fuc(a1-2)Gal(b1-4)GlcNAc(b1-3)GalNAc
# Procedure, shortened: as §1
# [28] = target: Fuc(a1-2)Gal(b1-4)GlcNAc(b1-3)[Fuc(a1-2)Gal(b1-4)GlcNAc(b1-6)]GalNAc
# Procedure, shortened: as §1
# [29] = target: Fuc(a1-2)Gal(b1-4)GlcNAc(b1-3)[Fuc(a1-3)[Gal(b1-4)]GlcNAc(b1-6)]Gal(b1-4)Glc
# Procedure, shortened: as §1
# [30] = target: Fuc(a1-2)Gal(b1-4)GlcNAc(b1-6)GalNAc
# Procedure, shortened: as §1
# [31] = target: Fuc(a1-2)Gal(b1-4)GlcNAc6S
# Procedure, shortened: as §1
binder,measurement,setting,value
B1,glycan array binding signal (z-score),Fuc(a1-2)Gal,-0.163
same,glycan array binding signal (z-score),Fuc(a1-2)Gal(b1-3)GalNAc,-0.178
same,glycan array binding signal (z-score),[1],-0.148
same,glycan array binding signal (z-score),[2],-0.099
same,glycan array binding signal (z-score),[3],0.145
same,glycan array binding signal (z-score),[4],-0.237
same,glycan array binding signal (z-score),[5],-0.131
same,glycan array binding signal (z-score),Fuc(a1-2)Gal(b1-3)GlcNAc,-0.155
same,glycan array binding signal (z-score),[6],0.1
same,glycan array binding signal (z-score),[7],0.228
same,glycan array binding signal (z-score),[8],-0.155
same,glycan array binding signal (z-score),[9],-0.168
same,glycan array binding signal (z-score),[10],-0.093
same,glycan array binding signal (z-score),[11],-0.196
same,glycan array binding signal (z-score),[12],-0.169
same,glycan array binding signal (z-score),[13],-0.182
same,glycan array binding signal (z-score),[14],-0.157
same,glycan array binding signal (z-score),[15],0.006
same,glycan array binding signal (z-score),[16],0.123
same,glycan array binding signal (z-score),[17],-0.172
same,glycan array binding signal (z-score),[18],-0.148
same,glycan array binding signal (z-score),[19],0.115
same,glycan array binding signal (z-score),Fuc(a1-2)Gal(b1-4)Glc,-0.171
same,glycan array binding signal (z-score),Fuc(a1-2)Gal(b1-4)Glc6S,-0.129
same,glycan array binding signal (z-score),Fuc(a1-2)Gal(b1-4)GlcNAc,-0.183
same,glycan array binding signal (z-score),[20],-0.138
same,glycan array binding signal (z-score),[21],0.116
same,glycan array binding signal (z-score),[22],0.545
same,glycan array binding signal (z-score),[23],0.314
same,glycan array binding signal (z-score),[24],-0.163
same,glycan array binding signal (z-score),[25],-0.109
same,glycan array binding signal (z-score),[26],-0.145
same,glycan array binding signal (z-score),[27],-0.141
same,glycan array binding signal (z-score),[28],-0.158
same,glycan array binding signal (z-score),[29],-0.142
same,glycan array binding signal (z-score),[30],-0.14
same,glycan array binding signal (z-score),[31],-0.144
